Several values for one entry are separate records, joined by “and”; a condition that tells them apart may be missing. Equal entries are not always repeated. About 12,000 (3.5%) of roughly 340,000 compounds were called active. The inconclusive results got no clear call from the source; some entries with a clear call stand among them for comparison. The call rests on the fitted dose curve; in most records, active means well fitted inhibition curve with a large enough effect; inconclusive means small, poorly fitted or top-dose-only effect, or another doubt; inactive means no such curve, though single readings can be large or run the other way. Where the call is inconclusive, the potency comes from a doubtful curve fit.
Test: qHTS Assay for Inhibitors of Hepatitis C Virus (HCV)
Details: Huh7.5.1 HCVcc-Cre (HCVcc is cell-culture hepatitis C virus) infection, luciferase reporter, 44 h; activity change, negative = inhibition: at 41.8 µM (top of the series) unless noted
In short: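 1,000 cells/well; 4 h culture; + compound; + HCVcc-Cre (~0.5 moi); 44 h; luciferase substrate, RT 15 min; read 15 sec.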
On the % scale 0 is the no-effect control and ±100 the full control effect; potency means the concentration at half of the fitted maximal effect; tags describe the fitted curve by direction and shape.

SMILES	Potency	activity change, negative = inhibition
CNC(=O)c1sccc1SCc1ccc(Cl)cc1Cl	inconclusive: 31.6 µM [inhibitor, single point]	
COc1cc(NC(=O)c2ccco2)c(OC)cc1NC(=O)c1cc(OC)c(OC)c(OC)c1	inconclusive: 3.55 µM [inhibitor, single point] and inconclusive: 5.62 µM [inhibitor, single point]	
O=C(c1ccc2c(c1)OCO2)C1CCCN(Cc2ccc3nsnc3c2)C1 (stereo not given)	inconclusive: 15.8 µM [inhibitor, single point]	
COc1cc2c(cc1OC)C1Cc3ccc(OC)c(OC)c3CN1CC2 (stereo not given)	inconclusive: 31.6 µM [inhibitor, single point]	
CC(=O)Nc1ccc(S(=O)(=O)N(C)CC(=O)Nc2cccc(S(=O)(=O)N3CCCC3)c2)cc1	inconclusive: 1.26 µM [inhibitor, full curve]	
C/C(=N\NC(=O)c1cccc(O)c1)c1cccc(NC(=O)c2ccc(F)cc2)c1	inconclusive: 10 µM [inhibitor, partial curve]	
N#Cc1ccccc1Sc1ccccc1C(=O)NCC(c1ccco1)N1CCCC1 (stereo not given)		inactive: -7.25%
Cc1cc(Cl)ccc1NC(=S)NCCC(c1ccccc1)c1ccccc1	inconclusive: 15.8 µM [inhibitor, single point]	
CC(=O)N1CCN(C(=O)COC(=O)c2ccc(S(C)(=O)=O)cc2)CC1		inactive: -7.48%
O=C(O)c1ccccc1-c1ccccc1C(=O)Nc1cccc(Br)c1	inconclusive: 12.6 µM [inhibitor, partial curve]	
CN(C)CCO[C@@H](c1ccc(Cl)cc1)c1ccccn1		inactive: -4.93%
CCOC(=O)c1cccc(N2C(N)=NC(N)=NC2(C)C)c1		inactive: -5.8%
CC(C)(C)c1ccc(C(=O)Nc2ccc(N3CCOCC3)cc2)cc1	active: 1.78 µM	
COc1ccc(/C=N/Nc2nc3ccccc3[nH]2)cc1OC		inactive: -12.4%
CN(C)Cc1c(O)ccc2c1O/C(=C\C=C\c1ccccc1)C2=O		inactive: -10.6%
CCOC(=O)CSc1nc2cc(C(=O)N3CCCC3)ccc2c(=O)n1Cc1ccccc1	inconclusive: 10 µM [inhibitor, single point]	
COc1ccc(S(=O)(=O)N2CCOCC2)cc1NC(=O)c1cc2c(s1)CCCC2		inactive: 4.71%
Cc1ccc(C(=O)/C=C/c2cn(CC(O)CN3CCOCC3)c3ccccc23)cc1 (stereo not given)	inconclusive: 31.6 µM [inhibitor, single point]	
CCC(C)Sc1cccc(-c2nc3cnccn3c2NC2CCCCC2)c1 (stereo not given)	inconclusive: 10 µM [inhibitor, partial curve]	
COc1cc(OC)c2cc(C(=O)N/N=C/c3cccc(OC)c3O)[nH]c2c1	active: 8.91 µM	

Reference: PubChem BioAssay AID651820 (National Center for Advancing Translational Sciences (NCATS), 2012)
